According to the supplement of paper PMC12632987:
The full ranking holds about 2,300 sequences; the median of “median log2 fold change of GCK-ALFA target abundance (FLAG IP / Myc IP barcode read proportion)” is about 0.095, and the lowest 2% start at about -0.47. This is one part of the list.

B1: LC3A_3_1374 (protein)
chain: TEEKIAELLAFLAAQGKSAETLAAVEAAARALAAKGYEKALETFIELMKELADVPDELLLWFAEEVLRAVTEEDLTEEELIEFIKNEATVVRNEAEIEEL
B2: LC3A_28_883 (protein)
chain: SEALESARAALAEVEAAVAAGNTEPLVLEVVAPSTEEDAEKFLELLEELAAAASKLPGVTIIIDIDESVSEELRNRIIDKADELEEKYPNVTIIIALPES
B3: LC3A_28_1017 (protein)
chain: SALEKQIAEIRKEAEAAIAAGEDVVLTLKITGDMSLEEVKEAMEKVSEIVLEAAKKGKVDLVIDLDADVSQEKLDVVLEKAEEIEEKAPNVNVIIALEER
B4: LC3A_3_1874 (protein)
chain: MEEEIEKTLKELKEAGASEETIEKFKEVAEKLKERGYEEALKTLIEKVRELIPTSDEILLDFLEEVLEVLETEDLSEEELIERINEIAELALNEAEIEEL
B5: LC3A_132_329 (protein)
chain: EEEKYAELTAAIDAKLDAALANVTDLAKVEALAEETRALLERAEKEISPEQAAELYDRAADLYDKVADAAEAAGQEDVALLASGMAVEAAARSIRAEEKI
B6: LC3A_3_1887 (protein)
chain: MDEKIEETLKRLKEAGASEETLEAFKRVVEKLKARGWDEALNTLIEKVDELLDAPDEVRLAFLQDVLALLDTPGVSEEELIAGINELATLAKNEAEIIEL
B7: LC3A_3_1431 (protein)
chain: MEELLERARRVLEEAGFDEETIEAVLELLELALKAGEVEEAERLIEVLEESKNVDSEEVLEAAREALRRIREEGVPIKEALERFIEELRVLRLEEEIEEL
B8: LC3A_127_208 (protein)
chain: KERELLLEAERLAEELLEALEEIPEKGEEARKRAIELAEELIKLLEKIPSLADAKKDAEQLLKQLKELEKLDEAEREEKVEHLEMLADGILIEIESELLK
B9: LC3A_28_1304 (protein)
chain: SSLEKKFEEAIKKIEEAAKKGEPVVVTIDITAEEAEKELEKILELLEKLGEVASKAPGAVIIIDLDSKVKPENRKKIMDKAEEIEEKYPNVTVIIAIEDD
B10: LC3A_59_2021 (protein)
chain: SPELEEARERLLAARDDKEKLAELITEWLIRHRDDPELLEELKELIVEVLVESGILSRELAEEMLEEMIEIIEEEEDEEEARKKMKEVFRTALNEEEIIE
B11: LC3A_62_2050 (protein)
chain: MYRAEIDVDLLFDTEEKAKKAAEEIKEAAEEIKEKYPEVEVEVEIEIDGTFLDVKIILKAPNKELLEKAVNDLIDKIEEIAEKYGAKAILISVDIEEVEE
B12: LC3A_28_1023 (protein)
chain: SAAEEKVKAAREEAKEQKAKGEPIFIEISVDETTTLEDAKTIVKGIEEIAEEFKDEKGVSIIIDVDAGVSQEVIDTLADGAEKIEKKYPNVSVIIALEER
B13: LC3A_28_758 (protein)
chain: MDVAEIVAAAIAEAKAAAAAGEEAVIRIRVPAGATQEDIDKVIAGLEEIAEIRKDMKSTSIVIDIEAGVSQENIDKLIDAGEAIEKKYPNITVIFALDED
B14: LC3A_59_2011 (protein)
chain: MEEVKKYVDEILTKYDDPEAFYKAVKEAYEKLKEKYSDEELLELVTKVAEERIKKGEDPKKMQAIVDSFKAVIEIKDEEKQKEEIKLILLESEIEEIDEE
B15: LC3A_28_940 (protein)
chain: ATTAENLAAALAEAEAAAAAGEPVVVTLTLRGTDTQEDVDRLLATLRRIAELLKDVPGAAIVVDVEAGVPQEHIDRVADEGDAIEERYPGITVIIALDED
B16: LC3A_28_1166 (protein)
chain: SPLEESIKEALAEAKKAAEKKEPTVITIHVPGGATEEEVERVIEAIEEIAELLKDIPGSAIIIDVDSGVPQEHLDRIIDKAEEVEKKYPNISVIIALDEE
B17: LC3A_28_1101 (protein)
chain: SKLEENLEKAIKEAKEAAAKGEEALIEINVGDDATEEDIELLIKTIEEIAEINKDLPSLTIVINLDGEKAREKADIISKEADKLEKKYPNLTIIIALPED
B18: LC3A_28_1266 (protein)
chain: SAIDEALAAFKAAAEAAKAAGKPSLLELEVPGDTTAEDVDRINATMKEEAEKLKDIKGTAILISIDSDLAQENRDKLIDTAEEIEKKNPNITVIIAIEDE
B19: LC3A_free_39_2273 (protein)
chain: SMEELEKLKKEALEIAKKEGEETLKAVEELFELLKDNPEIQKKVAEGLLEVHKAGGDLLEAAKDLVELVKKLKEEGKSPEELKKELEEELKVHLNLIPLD

Biological target: MAP1LC3A, Q9H492
Experiment: median log2 fold change of GCK-ALFA target abundance (FLAG IP / Myc IP barcode read proportion) (log2 ratio); each designed protein is fused to an ALFA-tag nanobody in HEK293 cells to bring the named protein to FLAG-tagged glucokinase (GCK); Myc marks an untargeted standard; higher = target protein stabilised (more abundant)
Settings: target protein: 3xFLAG-MCP-GCK-ALFA reporter; HEK293 landing pad (RPLP)
In short: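 HEK293 landing-pad cells received a recombined binder library fused to the ALFA nanobody and were induced with 2 μg mL^−1 doxycycline, then transfected with a plasmid encoding a FLAG-tagged target and a Myc-tagged standard. Lysates were collected after 48 h for anti-FLAG and anti-Myc immunoprecipitation, and the circular RNA barcodes were reverse transcribed, amplified and sequenced. Target abundance for each binder is the median log2 ratio of FLAG to Myc barcode read proportions. Barcodes had to reach a proportion of at least 10^−7 in both replicates, each binder needed at least 3 barcodes per replicate, a pseudocount of 10^−6 was applied, and the two replicates were pooled.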

**Q.** With B1 as the binder, how does the “median log2 fold change” value read?
**A.** 0.11

**Q.** With B2 as the binder, how does the “median log2 fold change” value read?
**A.** -0.252

**Q.** Which “median log2 fold change” value does the source give for B3 here?
**A.** -0.172

**Q.** With B4 as the binder, how does the “median log2 fold change” value read?
**A.** -0.0677

**Q.** With B5 as the binder, how does the “median log2 fold change” value read?
**A.** 0.21

**Q.** B6 was tested. Which “median log2 fold change” value did it give?
**A.** 0.21

**Q.** B7 was tested. Which “median log2 fold change” value did it give?
**A.** 0.119

**Q.** Which “median log2 fold change” value does the source give for B8 here?
**A.** 0.0328

**Q.** How did the “median log2 fold change” value turn out when B9 was run?
**A.** 0.299

**Q.** How did the “median log2 fold change” value turn out when B10 was run?
**A.** 0.191

**Q.** B11 was tested. Which “median log2 fold change” value did it give?
**A.** 0.0577

**Q.** Which “median log2 fold change” value does the source give for B12 here?
**A.** -0.231

**Q.** With B13 as the binder, how does the “median log2 fold change” value read?
**A.** 0.124

**Q.** B14 was tested. Which “median log2 fold change” value did it give?
**A.** 0.268

**Q.** Which “median log2 fold change” value does the source give for B15 here?
**A.** 0.0182

**Q.** With B16 as the binder, how does the “median log2 fold change” value read?
**A.** -0.31

**Q.** For B17, which “median log2 fold change” value is on record?
**A.** 0.374

**Q.** How did the “median log2 fold change” value turn out when B18 was run?
**A.** -0.0182

**Q.** B19 was tested. Which “median log2 fold change” value did it give?
**A.** 0.213
